Laboratory results as given in PubChem BioAssay AID360 (National Center for Advancing Translational Sciences (NCATS), 2006).
In all, about 48,000 compounds went through this assay and about 550 (1.1%) were called active. Inconclusive results (about 4%) are left out. Cut-off read from the data, not from the text of the source: active = potency below about 15 µM; inconclusive = mostly about 16 µM to 33 µM; inactive = weaker than that. This is one part of the list.

Biological target: Lysosomal acid glucosylceramidase (Homo sapiens) (UniProt P04062)
Sequence of UniProt P04062 (P04062 whole entry, looked up): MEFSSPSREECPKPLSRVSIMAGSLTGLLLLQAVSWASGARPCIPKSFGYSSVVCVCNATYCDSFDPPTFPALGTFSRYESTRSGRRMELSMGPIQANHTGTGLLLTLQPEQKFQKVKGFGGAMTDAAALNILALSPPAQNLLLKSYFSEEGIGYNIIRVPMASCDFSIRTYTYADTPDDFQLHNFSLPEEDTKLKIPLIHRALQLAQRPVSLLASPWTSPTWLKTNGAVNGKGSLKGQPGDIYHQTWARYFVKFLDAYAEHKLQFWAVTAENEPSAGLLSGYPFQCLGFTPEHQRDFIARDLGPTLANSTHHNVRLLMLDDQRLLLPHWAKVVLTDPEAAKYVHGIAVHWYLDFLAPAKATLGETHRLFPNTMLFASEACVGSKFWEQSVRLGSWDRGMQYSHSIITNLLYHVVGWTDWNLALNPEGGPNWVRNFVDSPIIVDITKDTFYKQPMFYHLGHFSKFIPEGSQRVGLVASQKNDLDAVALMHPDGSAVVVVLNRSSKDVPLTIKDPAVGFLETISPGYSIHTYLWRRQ
Assay: Glucocerebrosidase;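 note: the screen sought inhibitors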
Settings: purified enzyme, resorufin glucoside fluorescence (screen aimed at inhibitors), 20 min
Procedure, shortened: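 Normal human glucocerebrosidase (0.2 nM final) was assayed with resorufin β-D-glucopyranoside (30 uM final) in 50mM citric acid/KH2PO4, 10mM sodium taurocholate, 0.01% tween-20, pH 5.9. Compounds were titrated; fluorescence (Ex 548, Em 600) read after 20 min at RT.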
Potency is the fitted concentration of half-maximal effect.

Potency, inactive:
Cc1c2c(nc3c(C(=O)NC4CCCC4)cnn13)CCCC2 > 76.9 µM
O=C(NCc1ccccc1)N[C@@H](Cc1c[nH]c2ccccc12)C(=O)O > 76.9 µM
CCNS(=O)(=O)c1ccc(NC(=O)Cn2nc(C(F)(F)F)cc2C)cc1 > 76.9 µM
CCOC(=O)c1[nH]c(C)c(C(=O)N2CCN(c3ccc(F)cc3)CC2)c1C > 76.9 µM
COc1cccc(NC(=O)C2CCCN2C(=O)Nc2ccccc2F)c1 (stereo not given) > 76.9 µM
CCn1nc(NS(=O)(=O)c2ccccc2)c2cc3cccc(C)c3nc21 > 76.9 µM
COc1ccc(C(=O)N2CCN(c3nc4cc(C)ccc4cc3C#N)CC2)c(OC)c1 > 76.9 µM
CC1=NOC2(C1)N(C)c1ccccc1C2(C)C (stereo not given) > 76.9 µM
N#CCCNCC1(c2ccccc2)CCCC1 > 76.9 µM
Cn1c(=O)[nH]c(=O)c2c1nc(CN1CCN(c3ccc(F)cc3)CC1)n2CCN1CCOCC1 > 76.9 µM
COc1ccc(N2CCN(C(=O)C3CCN(S(=O)(=O)N4CCOCC4)CC3)CC2)cc1 > 76.9 µM
CCCS(=O)(=O)N1CCCC(C(=O)NCCCN2CCN(c3ccc(F)cc3)CC2)C1 (stereo not given) > 76.9 µM
O=c1[nH]c(-c2cccnc2)nc2ccccc12 > 76.9 µM
COc1cccc(N2CCN(C(=O)NC3CCCCC3)CC2)c1 > 76.9 µM
CC(=O)NCCC(=O)Nc1ccc(C)c(F)c1 > 76.9 µM
COc1cc(-c2nc(-c3ccc(-c4ccccc4)nc3OC)no2)cc(OC)c1OC > 76.9 µM
Cc1cc(C)cc(OCC(=O)Nc2ccc(N3CCN(S(C)(=O)=O)CC3)cc2)c1 > 76.9 µM
COC(=O)CSc1nnc(CNC(=O)c2cc(OC)c(OC)c(OC)c2)n1C > 76.9 µM
CC(C)OCCCNC(=O)Cn1ncc2c(=O)oc3ccccc3c21 > 76.9 µM
O=C(OCc1c(Cl)cccc1Cl)c1cccnc1 > 76.9 µM
Cc1cc(NC(=O)CSc2ncn(-c3ccccc3)n2)no1 > 76.9 µM
C=C(C)COc1ccc(-c2[nH]ncc2Oc2cccc(OC)c2)c(O)c1 > 76.9 µM
N#Cc1cccc2cnccc12 > 76.9 µM
COc1ccc(C2N(C(=O)CN3CCOCC3)CCN2S(=O)(=O)c2ccccc2)cc1 (stereo not given) > 76.9 µM
Cc1nn2c3ccccc3nc2n(C)c1=O > 76.9 µM
